The RNAGym collection of RNA variant scans (doi:10.7554/elife.90254)
The source gives no read counts; variants with many changes may rest on few reads.

B1: OR4K15 (parent)
chain: GUUAACGGUCAUAGGCCAUGGAAACUAGGAGCACCAUUUCGCUGCCAGUGAAGAAAUGAACAAAGAAAAUCUGGGCCAGGCAGGCAUCAAAAGAAAUAGUCUUGCGCUCAACCAGAAAGUCUGUAAUCAUUUUAAGGGUA

Variants of: B1
Experiment: self-cleavage, relative activity (ratio to wild type); higher = more cleavage; in vitro, sequencing; the parent is a self-cleaving ribozyme

Variant	self-cleavage
U19C C32G A47G A54G A78G A110C	0.15
A22G A62G U122A	0.57
A22G A78U A116G	0.29
A22G A24C U38C	1.27
A22G A51U U100C	2.11
A22G U38A U132A	0.92
A22G U39C A55G A78G A126G	0.25
A22G A47G U87C A111G	0.07
U19C A111G U131C U132C	0.01
U19C U57A A92G	1.09
U19C U43C C113U	0.02
A22G C61G A95G U130C	0.46
A22C A30G A59G A129C	0.41
A22G U43C A60G	0.55
U19C U37C U120C	0.88
A22G A90G A94G	1.3
A22G U37C A89G	1.45
A22G A116G U124C	0.23
A22G A66G A67U G115U U139A	0.09
A22G A67G U72A A82G A95G A129G	0.05
A22G A82G U108A A111U	0
U19C U38C A51U A96G U97C A129U	0.14
A22G A51G U87C A117G	2.41
A22C A55G A67U A114G U130C	0.55

Variant	self-cleavage
A22G A30G U72C U120C	0.17
A22G A33G U37C A51U A129G	1.58
A22G U39C A98G	0.91
A22G A66U A118U	0.76
U19C U37C U131C	1.64
A22G U39C A55G A94G C121A	1.57
A22G A51G A56G A67G A69U U102C U122C	0.87
A22G G28A A68G A82G U108C	0.03
A22G G48A A69U U127C	1.21
A22G A54G A90G	0.75
A22G A24C A66U	1.81
G21A A96G U97C U108C	0.01
A22G A66G A91G A94G U131C	0.79
A22C A23G A30G	1.35
U19C U87C U108C A110G	0.02
A22G A66G A95G A114G U124C	0.47
A22G A67G U124C	0.65
G21A C34U A89U	1.61
A22G C46U U57C A82G A116G	0.19
U19C A92G A118G	0.95
A22G A23G U39C G75A	0.16
A22G A125G A126G U132C	0.46
A22G A23U G75A	0.29
U19C U57C A66G A95G	0.7

Variant	self-cleavage
U19C U97A U120A	2.52
A22G A33U A91G	0.39
A22G A30G U37G U49C U100C U102A	1.33
U19C U39G A66G U87C	0.54
A22G A33G U38C U39C U49A C76A U102A U108C A116U	0
A22G A33G U139C	0.92
G21U A24C U57A A59G A64G	1.4
A22G A116G A129U	0.25
A22G A47G A63G	1.52
A22G A52C A63G A94G A116G	1.2
G20A U131C U132C	1.42
A22G A52G A67G U108C	0.03
U19C A62G C105U A118G	0.04
A22G A51U A52G U87C	1.82
A22G A30G G44A A59G	1.74
A22G A27G A54G U87A U131C	0.75
U19C A67G U102C	1.7
G20A A30U A36U A92U A95G A116G	1.11
U19C U49C U133C	1.82
U19C C61U U70G	1.36
A22G A54G A62G A64G	1.08
A22C C40A A54G A110G	0.24
U19C A62U U72C	0.18
A22G A33U A47G A66G G83C	0.34

Variant	self-cleavage
A22G A82U A91U U103C U124C	0.02
A22G A78G U102C U120C	0.23
A22G A56G A114U	0.04
U19C G41A A60G A110G	0.33
U19C A126G U130C	0.28
G21A A51G A60G A95G	1.63
G20A C42U A51U A59G A60U U70C	0.8
U19C A68G U108C	0.01
A22G A52G A118U	0.58
U19C G53U A63G A86U	1.57
U19C U43C A55U G138U	1.06
A22G G44A A54G A69G	1.92
A22G U39C U108C	0.04
U19G A55G U70C A82G U108A	0.05
A22G A55U A111G	0.05
U19C U39A A96G	1.37
A22G U37C A52U U57C A89C	1.25
G21A U49C A82U A95U	0.09
A22G A94G U102C U127C	0.95
U19G U38G A52G	0.65
G21A A62G A92G C105U	0.05
A22G A111G U131C	0.06
U19C U122C U131A	0.68
U19C A91G U122C U127C	0.29

Variant	self-cleavage
U19G A23G U102C A118G A134U	1.05
A22C A64G A95G	2.04
A22G U43A A54U A111G	0.05
U19C A66G U87C U120C	1.7
A22G A63G A66G U120C	0.64
A22G A91G A117G	0.87
U19C A78G A95G	0.16
U19G U43A A90G	1.53
A22G A82G A94U U120C	0.6
U19C G28A A78U A96G U97A A117G U139C	0.29
A22G U49A A68G	1.12
A22G A30G G83A G99A A111G	0.02
G20C U49C C61U	1.69
A22G A24G A66G	1.13
U19C A60G A114U	0.05
G20A A56G A118G	1
A22G A47G U87C	0.42
A22G A27U A64G A118G	1.16
G20A U39C A54G A117U	1.06
A22G U39C A59G A82G U131C	0.31
G21C A96G U124C	0.56
G21U A27G C77U	1.35
U19C U49C A69U	1.38
A22G A33U A63G A90G A94G U120C U122A U131C	0.35

Variant	self-cleavage
A22G U26A A60U G65A	0.98
U19C A63U A69G U127G	1.93
G21A A30G A68G A69U A95G	1.66
G20U A56G U72C U103G U127A	0.01
G20A U38C C46U A117U	1.43
A22G A62G U131C	1.57
A22G A86G A96G	0.87
U19C U87C U127C	0.54
G20A A30U A66G A91C C107A	0.03
A22G U39C A67G U130C	0.34
U19C G44A U49C A90G A114G	0.1
U19C G20U A52G A62U	0.45
G21A U38C U49C A59G	1.25
U19C A110G U127A	0.03
U19G A118G A140G	0.59
A22G A60G A78U G80A A117G	0.12
U19C U57C A92G	0.33
U19G U49C A69G U87A A111G U122C A135U	0
U19C U38C U87C	0.69
A22G U38C U49C U132C	1.75
A22G A86G A89C	0.71
U19C A63U A82G A111G	0
A22C A63G A89G A117G A118G	2.18
A22G A82U U108C	0.03

Variant	self-cleavage
A22G A30G A64G A92G	1.25
A22G A33G G83A	1.4
A22G A55G A68G A92G	1.07
A22G U26C A51G G75C A125G	0.07
A22G A78U U120C U132C	0.08
A22G A52U G119A	1.95
U19C G41U A114G A129C	0.07
A22G A62U U70C	1.2
U19C A90C A94G	1.68
A22G A118G U130C	0.59
A22G A62G A114G	0.57
A22G U39C U127A	2.48
U19G A52G A78G	0.45
A22G A69G A117G	2.16
A22G A60G U127A	1.85
U19G A52G A60U A69G A118G U127C	0.42
U19C U39A A47G	1.67
A22G U39C A66C	1.25
A22G A82G U102C	1.33
A22G A64G A78U	0.21
A22G A94G A98U A111G U132C	0.01
U19C U102A A116U U131C	0.05
U19C A110G U120C	0.04
